{"source": "patent US9763922B2", "about": "(priority 2014, dated 2017)", "data": [{"test_system": "MYC", "experiment": "cells", "conditions": "Homo sapiens, MV4-11, 4 h, read-out: Myc IC50 (μM)", "units": {"IC50": "µM"}, "values": [{"smiles": "CC(=O)N1CCc2c(c(N3CCCc4cc(-c5cnn(C)c5)c(C(F)F)cc43)nn2[C@@H]2CCCOCC2)C1", "note": "(single isomer, unassigned) [Example 374]", "IC50": 0.01}, {"smiles": "CC(=O)N1CCc2c(c(N3CCCc4cc(-c5cnn(C)c5)c(C(F)F)cc43)nn2C2CCC(F)(F)CC2)C1", "note": "[Example 348, 1-[1-(4,4-difluorocyclohexyl)-3-[7-(difluoromethyl)-6-(1-methylpyrazol-4-yl)-3,4-dihydro-2H-quinolin-1-yl]-6,7-dihydro-4H-pyrazolo[4,3-c]pyridin-5-yl]ethanone]", "IC50": 0.019}, {"smiles": "CNC(=O)N1CCc2c(c(N3CCCc4cc(-c5ccnc(OC)c5)c(C(F)F)cc43)nn2C2CCOCC2)C1", "note": "[Example 249, 3-[7-(difluoromethyl)-6-(2-methoxy-4-pyridyl)-3,4-dihydro-2H-quinolin-1-yl]-N-methyl-1-tetrahydropyran-4-yl-6,7-dihydro-4H-pyrazolo[4,3-c]pyridine-5-carboxamide]", "IC50": 0.011}, {"smiles": "CNC(=O)N1CCc2c(c(N3CCN(C)c4cc(-c5cnn(C)c5)c(C(F)(F)F)cc43)nn2C2CCOCC2)C1", "note": "[Example 268, N-methyl-3-[4-methyl-6-(1-methylpyrazol-4-yl)-7-(trifluoromethyl)-2,3-dihydroquinoxalin-1-yl]-1-tetrahydropyran-4-yl-6,7-dihydro-4H-pyrazolo[4,3-c]pyridine-5-carboxamide]", "IC50": 0.007}, {"smiles": "CC(=O)N1CCc2c(c(Nc3ccc(-c4cccnc4)cc3)nn2C)C1", "note": "[Example 119, (S, S)-1-[3-[6-(1-methylpyrazol-4-yl)-3-phenyl-3,4-dihydro-2H-quinolin-1-yl]-1-tetrahydrofuran-3-yl-6,7-dihydro-4H-pyrazolo[4,3-c]pyridin-5-yl]ethanone]", "IC50": 1.03}, {"smiles": "CC(=O)N1CCc2c(c(N3CCc4ccc(-c5nn[nH]n5)cc43)nn2C)C1", "note": "[Example 204, 1-(3-(6-(2H-tetrazol-5-yl)indolin-1-yl)-1-methyl-6,7-dihydro-1H-pyrazolo[4,3-c]pyridin-5(4H)-yl)ethanone]", "IC50": "> 20"}, {"smiles": "CC(=O)N1CCc2c(c(Nc3cc(C(=O)NC(C)C)cc(-c4cnn(C)c4)c3)nn2C)C1", "note": "[Example 17, 3-[(5-acetyl-1-methyl-6,7-dihydro-4H-pyrazolo[4,3-c]pyridin-3-yl)amino]-N-isopropyl-5-(1-methylpyrazol-4-yl)benzamide]", "IC50": 0.29}, {"smiles": "CC(=O)N1CCc2c(c(Nc3ccc(-c4cnn(C)c4C)cc3F)nn2C2CCOC2)C1", "note": "(stereo not drawn) [Example 283, 1-[3-[4-(1,5-dimethylpyrazol-4-yl]-2-fluoro-anilino]-1-tetrahydrofuran-3-yl-6,7-dihydro-4H-pyrazolo[4,3-c]pyridin-5-yl]ethanone]", "IC50": 0.078}, {"smiles": "CC(=O)N1CCc2c(c(Nc3cc(C#N)cc(-c4cnn(C)c4)c3)nn2C)C1", "note": "[Example 20, 3-[(5-acetyl-1-methyl-6,7-dihydro-4H-pyrazolo[4,3-c]pyridin-3-yl)amino]-5-(1-methylpyrazol-4-yl)benzonitrile]", "IC50": 0.33}, {"smiles": "CNC(=O)c1ccc(-c2cc3c(cc2Cl)N(c2nn(C4CCOCC4)c4c2CN(C(C)=O)CC4)CCC3)cn1", "note": "[Example 353, 5-[1-(5-acetyl-1-tetrahydropyran-4-yl-6,7-dihydro-4H-pyrazolo[4,3-c]pyridin-3-yl)-7-chloro-3,4-dihydro-2H-quinolin-6-yl]-N-methyl-pyridine-2-carboxamide]", "IC50": 0.029}, {"smiles": "CNC(=O)c1ccc(-c2cc3c(cn2)N(c2nn(C4CCOCC4)c4c2CN(C(C)=O)CC4)CCC3)cn1", "note": "[Example 280, (S)-1-[3-[2,6-difluoro-3-(1-methylpyrazol-4-yl)anilino]-1-tetrahydrofuran-3-yl-6,7-dihydro-4H-pyrazolo[4,3-c]pyridin-5-yl]ethanone]", "IC50": 0.057}, {"smiles": "COC(=O)c1ccc2c(c1)N(c1nn(C)c3c1CN(C(C)=O)CC3)CC2", "note": "[Example 212, methyl 1-(5-acetyl-1-methyl-6,7-dihydro-4H-pyrazolo[4,3-c]pyridin-3-yl)indoline-6-carboxylate]", "IC50": 4.5}, {"smiles": "CC(=O)N1CCc2c(c(N3CCCc4cc(-c5cnn(C)c5)c(C(F)F)cc43)nn2C2COC2)C1", "note": "[Example 122, 1-[3-[7-(difluoromethyl)-6-(1-methylpyrazol-4-yl)-3,4-dihydro-2H-quinolin-1-yl]-1-(oxetan-3-yl)-6,7-dihydro-4H-pyrazolo[4,3-c]pyridin-5-yl]ethanone]", "IC50": 0.274}, {"smiles": "CC(=O)N1CCc2c(c(N3CCCc4cc(-c5cnc(C)s5)c(C#N)cc43)nn2C2CCOCC2)C1", "note": "[Example 369, 1-(5-acetyl-1-tetrahydropyran-4-yl-6,7-dihydro-4H-pyrazolo[4,3-c]pyridin-3-yl)-6-(2-methylthiazol-5-yl)-3,4-dihydro-2H-quinoline-7-carbonitrile]", "IC50": 0.067}, {"smiles": "CCn1cc(-c2ccc(Nc3nn(C)c4c3CN(C(C)=O)CC4)cc2)cn1", "note": "[Example 123, 1-[3-[7-(difluoromethyl)-6-(1-methylpyrazol-4-yl)-3,4-dihydro-2H-quinolin-1-yl]-1-tetrahydrofuran-3-yl-6,7-dihydro-4H-pyrazolo[4,3-c]pyridin-5-yl]ethanone]", "IC50": 0.99}, {"smiles": "CC(=O)N1CCc2c(c(N3CCc4cc(-c5cn(C)nc5C(F)(F)F)ccc43)nn2C2CCOC2)C1", "note": "(stereo not drawn) [Example 179, 1-[3-[5-[1-methyl-3-(trifluoromethyl)pyrazol-4-yl]indolin-1-yl]-1-tetrahydrofuran-3-yl-6,7-dihydro-4H-pyrazolo[4,3-c]pyridin-5-yl]ethanone]", "IC50": 2.46}, {"smiles": "CC(=O)N1CCc2c(c(Nc3ccc(-c4cnn(C)c4)cc3)nn2CCC(N)=O)C1", "note": "[Example 171, 1-[3-[5-(1-methylpyrazol-4-yl)indolin-1-yl]-1-tetrahydrofuran-3-yl-6,7-dihydro-4H-pyrazolo[4,3-c]pyridin-5-yl]ethanone]", "IC50": 4.55}, {"smiles": "CC(=O)N1CCc2c(c(Nc3ccc(-c4cnn(C)c4)cc3F)nn2[C@@H]2CCOC2)C1", "note": "[Example 299, 1-[3-[2-fluoro-4-(1-methylpyrazol-4-yl)anilino]-1-[(3R)-tetrahydrofuran-3-yl]-6,7-dihydro-4H-pyrazolo[4,3-c]pyridin-5-yl]ethanone]", "IC50": 0.77}, {"smiles": "CNC(=O)N1CCc2c(c(N3CCCc4cc(-c5cnn(C)c5)c(C(F)F)cc43)nn2C2CCN(CC(F)F)CC2)C1", "note": "[Example 335, 1-[1-(2,2-difluoroethyl)-4-piperidyl]-3-[7-(difluoromethyl)-6-(1-methylpyrazol-4-yl)-3,4-dihydro-2H-quinolin-1-yl]-N-methyl-6,7-dihydro-4H-pyrazolo[4,3-c]pyridine-5-carboxamide]", "IC50": 0.005}, {"smiles": "CC(=O)N1CCc2c(c(Nc3ccc(-c4cccc(C(C)(C)O)c4)cc3)nn2C)C1", "note": "[Example 107, 1-[3-[4-methyl-6-(1-methylpyrazol-4-yl)-3,4-dihydro-2H-quinolin-1-yl]-1-(oxetan-3-yl)-6,7-dihydro-4H-pyrazolo[4,3-c]pyridin-5-yl]ethanone]", "IC50": 1.13}, {"smiles": "CC(=O)N1CCc2c(c(N3CCc4cc(-c5cnn(C)c5)c(F)cc43)nn2C)C1", "note": "[Example 191, 1-[3-[6-fluoro-5-(1-methylpyrazol-4-yl)indolin-1-yl]-1-methyl-6,7-dihydro-4H-pyrazolo[4,3-c]pyridin-5-yl]ethanone]", "IC50": 0.329}]}]}
